# Experimental data from PMC6919601, “Identification of Plasmodium dipeptidyl aminopeptidase allosteric inhibitors by high throughput screening” (PLoS ONE, 2019).
# Several values for one entry are separate records, joined by “and”; a condition that tells them apart may be missing. Identical values can stand only once. Screen size: about 110,000 compounds; about 230 (0.21%) showed an effect of 50% or more. This is one part of the list.
# Target: DPAP1 (Plasmodium falciparum, UniProt Q8IIJ9)
# Test: primary screen, percent inhibition; read by cleavage of a fluorogenic dipeptide substrate; higher = more effect of the substance
# Set-up: species or system P. falciparum D10 trophozoite lysates; single well
# 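Further: 30 min substrate incubation versus DMSO and 10 µM JCP410 controls.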
# DPAP1, sequence (Q8IIJ9 whole entry, looked up): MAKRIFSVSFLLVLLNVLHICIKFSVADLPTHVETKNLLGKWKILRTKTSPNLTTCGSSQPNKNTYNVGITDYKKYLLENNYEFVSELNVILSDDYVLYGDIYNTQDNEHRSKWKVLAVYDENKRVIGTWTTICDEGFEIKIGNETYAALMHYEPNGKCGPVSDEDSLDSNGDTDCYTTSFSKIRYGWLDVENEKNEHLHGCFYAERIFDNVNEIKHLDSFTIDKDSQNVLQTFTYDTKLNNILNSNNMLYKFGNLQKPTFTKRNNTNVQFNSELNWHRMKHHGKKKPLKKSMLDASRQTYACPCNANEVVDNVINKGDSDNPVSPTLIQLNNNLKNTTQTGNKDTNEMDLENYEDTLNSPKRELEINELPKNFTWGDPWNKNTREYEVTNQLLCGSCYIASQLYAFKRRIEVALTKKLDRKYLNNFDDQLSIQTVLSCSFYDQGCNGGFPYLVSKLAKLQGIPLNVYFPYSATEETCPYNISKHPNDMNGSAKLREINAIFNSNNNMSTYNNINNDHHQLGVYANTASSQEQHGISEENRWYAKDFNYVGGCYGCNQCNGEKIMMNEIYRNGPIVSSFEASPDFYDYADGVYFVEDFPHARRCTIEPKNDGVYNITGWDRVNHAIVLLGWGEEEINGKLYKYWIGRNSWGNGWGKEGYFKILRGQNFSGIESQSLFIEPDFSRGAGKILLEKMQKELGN
row,SMILES,% Inhibition @ 10 uM
1,CS(=O)(=O)N(CCc1ccccc1)CC(=O)Nc1ccc(Br)cc1F,2.13%
2,CCn1cc(/C=C(\NC(=O)c2ccccc2OC)C(=O)NCCO)c2ccccc21,3.24%
3,Cc1nc2ccn(Cc3cccs3)c(=O)c2cc1C(=O)N1CCN(C)CC1,-2.29%
4,Oc1cc(Cc2ccccc2)nn1-c1nc2ccccc2s1,3.18%
5,CCOC(=O)N1CCN(C(=O)CSCC(=O)Nc2nc(-c3ccc(C)cc3C)cs2)CC1,5.23%
6,Cc1nn(CC(=O)NCCN2CCCCCC2)c(=O)c2cccn12,3.39%
7,COc1ccccc1C1C(C#N)=C(N)Oc2cc3ccccc3cc21 (stereo not drawn),-1.06%
8,CCOc1cc(C2C3=C(CC(C)(C)CC3=O)N(C)C3=C2C(=O)CC(C)(C)C3)ccc1OC,-7.9%
9,COc1ccccc1[S+](O)c1c(C)cc(C)cc1C (stereo not drawn),4.26%
10,Cc1ccc(C(C)C)c(OCC(=O)Nc2cccnc2Cl)c1,-3.34%
11,CC12CCC(C(=O)N3CCN(C(=O)C45CCC(C)(C(=O)O4)C5(C)C)CC3)(OC1=O)C2(C)C,-4.19%
12,NC(=O)c1cnn2c(C(F)(F)F)cc(-c3ccccc3)nc12,1.34%
13,CCOc1ccc(CCNC(=O)c2nccnc2C(=O)O)cc1OCC,0.776%
14,COc1ccc(S(=O)(=O)N(C(C)=O)c2ccc3oc(C)c(C(C)=O)c3c2)cc1,-20.8%
15,CC(C)Oc1ccc(CNC(=O)Cn2c(=O)c3cccn3c3cccnc32)cc1,3.38%
16,CCc1ccc(CNC(=O)C2CCCN(c3ncnc4onc(-c5ccc(F)cc5)c34)C2)cc1 (stereo not drawn),7.92%
17,CCCNS(=O)(=O)c1cnccc1N1CCN(C(C)C)CC1,-1.88%
18,CCCCCCN1C(=O)C(O)=C(C(=O)c2ccc(OC)cc2)C1c1ccccc1F (stereo not drawn),1.58%
19,COc1cc(OC)cc(-c2nc3nc(C)c(CCC(=O)NCCN4CCOCC4)c(C)n3n2)c1,-0.465%
20,COC(=O)C1=CN(Cc2ccc(Cl)cc2)C=C(C(=O)OC)C1c1ccc(OC)c(O)c1,0.219%
21,Cc1ccccc1C(=O)Nc1c(-c2ccccc2)nc2ccccn12,-2.01%
22,CCC1CCCCN1C(=O)C1CCN(S(=O)(=O)c2cccc3nsnc23)CC1 (stereo not drawn),-1.54%
23,Cc1oc(-c2ccccc2F)nc1CS(=O)CC(=O)NCc1ccc2c(c1)OCO2 (stereo not drawn),0.689%
24,CCN(Cc1ccccc1)S(=O)(=O)c1ccc(NC(C)=O)cc1,6.65%
25,Cc1ccc(C(=O)CC(c2ccccc2)C(C#N)C#N)cc1 (stereo not drawn),1.13%

row,SMILES,% Inhibition @ 10 uM
1,COC(=O)C(NC(=O)c1ccccc1)=C1C=C(c2ccccc2)OC(c2ccccc2)=C1,-0.615%
2,Cc1ccc(/C(=C\n2ccnc2)c2ccccc2)cc1,-6.92%
3,O=C(c1cccc(Cl)c1)N1CCN(c2ccc(F)cc2)CC1,-7.5%
4,O=C(NCCc1ccccc1)C1CCN(C(=O)c2sccc2-n2cccc2)CC1,-1.6%
5,Cc1cc(C)c2c(n1)OC(N1CCOCC1)(C(F)(F)F)CC2=O (stereo not drawn),-0.403%
6,O=c1ccn(Cc2ccccc2)c(=O)[nH]1,-3.14%
7,O=C(NCCCCNC(=O)C1CCCCC1)C1CCCCC1,3.72%
8,CCOC(=O)c1c(-c2ccc(Br)cc2)csc1N,13.1%
9,COc1ccccc1NC(=O)c1c(O)c2ccccc2n(C)c1=O,1.83%
10,CCN1CCC(N(C)CCN(C)C)CC1,3.48%
11,COc1ccc(-n2nnnc2C2CCN(S(=O)(=O)c3cc(F)ccc3C)CC2)cc1,0.00706%
12,COC(=O)C1=C(C)N(Cc2ccc(OC)cc2)C(=O)/C1=C\c1ccc(C(=O)OC)cc1,-1.26%
13,O=C(c1cc2nc(-c3ccc(Br)cc3)cc(C(F)(F)F)n2n1)N1CCOCC1,3.49%
14,CC(NC(=O)CCN1CCOCC1)C1COc2ccccc2O1 (stereo not drawn),-3.14%
15,O=C(Cn1ccs/c1=N/C(=O)C(F)(F)F)c1ccccc1,-5.41%
16,COc1ccc(S(=O)(=O)NCCc2cc3c(C)ccc(C)c3nc2O)cc1,0.205%
17,c1cncc(CNc2nc(N3CCOCC3)nc(N3CCOCC3)n2)c1,3.39%
18,Cc1ccc2oc(C(=O)Nc3sc4c(c3C(=O)NCC3CCCO3)CCCC4)cc(=O)c2c1 (stereo not drawn),6.56%
19,CN1CCN(C(=O)c2c(NC(=O)c3ccco3)sc3c2CCC(C(C)(C)C)C3)CC1 (stereo not drawn),3.29%
20,CCC(C(=O)NCCCN1CC(C)CC(C)C1)n1nc(C)c2sc3ccccc3c2c1=O (stereo not drawn),2.95%
21,COc1ccc2oc(=O)cc(CN3CCN(C(=O)c4ccc(Cl)cc4)CC3)c2c1,-4.9%
22,CCCSCCCNC(=O)c1oc2c(c1C)-c1n[nH]cc1CC2,2.07%
23,COc1ccc(-c2c(C)nn3c(NC4CC4)cc(C)nc23)cc1OC,-9.55%
24,CC(CCc1ccccc1)NC(=O)C1CCC(CNS(=O)(=O)c2ccccc2)CC1 (stereo not drawn),3.93%
25,C=CC[C@@H]1Cc2ccccc2[C@@H](C)N1,4.08%

row,SMILES,% Inhibition @ 10 uM
1,C=CCc1cc(/C=C2/C(=N)N3OC(C)=CC3=NC2=O)cc(OC)c1OCc1ccccc1F,-3.46%
2,CC(C)Nc1nc(NC(C)C)nc(N(C)C#N)n1,0.587%
3,Cc1cc(Oc2ccccc2)nc(-c2ccccc2)n1,1.91%
4,CC(C)C[C@H](NC(=O)c1ccc(Cl)c(-c2ccccc2)c1)C(=O)NCC#N,15.9%
5,Cc1c(C(=O)N2CCC3(CC2)OCCO3)oc2ccc(S(=O)(=O)N3CCCCCC3)cc12,0.287%
6,CCN(CC)C(=O)C1CCCN(Cc2ccc(C)o2)C1 (stereo not drawn),0.273%
7,N#CCNC(=O)C(CC1CCCCC1)C(=O)NCc1ccccc1 (stereo not drawn),-3.49%
8,Cc1ccc(S(=O)(=O)Nc2ccc(O)c(C(=O)O)c2)c(C)c1,-6.65%
9,O=C(Nc1cccc2cccnc12)c1ccccc1Br,-4.43%
10,O=C(c1cn(-c2ccccc2)nc1-c1ccccc1)N1CCN(Cc2ccccc2)CC1,0.716%
11,O=c1c(Cl)c(NCCC2=CCCCC2)cnn1C12CC3CC(CC(C3)C1)C2,0.0579%
12,Cc1ccc(NC(=O)c2ccccc2C)cc1Cl,0.526%
13,CC(C)(C)c1ccc(S(N)(=O)=O)cc1,-3.38%
14,CCOc1ccc(C2C3=C(O)CCCC3=NC(C)=C2C(=O)Nc2ccccc2OC)cc1OC (stereo not drawn),0.726%
15,CCc1ccc2c(c1)C(O)(CC(=O)c1ccc(Br)cc1)C(=O)N2 (stereo not drawn),8.36%
16,COc1ccc(C2CC(C(F)(F)F)n3ncc(C(=O)N(C)Cc4cnn(C)c4C)c3N2)cc1OC (stereo not drawn),11.2%
17,CCOC(=O)c1ccc(-n2c(CCC(=O)O)ccc2-c2ccc(C)cc2)cc1O,2.32%
18,Nc1ccc2nc3c(=O)[nH]c(=O)[nH]c3nc2c1,0.962% and -0.807%
19,Cc1ccc(CNC(=O)C2CCN(c3nnc(C)c4c(C)n(-c5ccccc5)nc34)CC2)cc1,-0.0309%
20,Cc1cc(OCC(=O)N2CCC(C)CC2)cc(C)c1Br,-3.29%
21,COCCCn1c(=O)c(C#N)cc2c(=O)n3cc(C)ccc3nc21,0.913%
22,COc1ccc(CNCCC2(O)CCOC(C)(C)C2)cc1 (stereo not drawn),3.96%
23,CCCCNc1oc(/C=C/c2ccc(OCC)cc2)nc1C#N,5.68%
24,COC(=O)c1c2[nH]c3ccccc3sc-2cc(=O)c1=N,3.65%
25,Cc1ccc(-c2nc(NC(=O)CSc3n[nH]c(N)n3)ns2)cc1,-1.11%

row,SMILES,% Inhibition @ 10 uM
1,CC1(C)Cc2c(sc(NC(=O)C3CC(Cl)=CCC3C(=O)O)c2C#N)CO1 (stereo not drawn),4%
2,COc1ccc(S(=O)(=O)N2CCN(Cc3cccc(OC)c3)CC2)cc1,8.09%
3,COC(=O)C(=O)/C=C(O)/C=C/c1ccccc1,1.58%
4,CC[n+]1c(S(=O)(=O)O)ccc2cccc(C)c21,3.25%
5,Cc1c2cnn(CC(=O)NCCC3=CCCCC3)c(=O)c2c(C)n1Cc1cccc(Cl)c1,-3.96%
6,Cc1nc2ccc(S(=O)(=O)NCC(=O)NCCC3=CCCCC3)cc2s1,4.14%
7,CC(C)N1CCN(c2ccncc2S(=O)(=O)N2CCOCC2)CC1,2.49%
8,CNC(=O)c1ccc([N+](=O)[O-])cc1Cl,-4.4%
9,CN1CCN(C(=O)c2ccc(-n3ccc4ccccc43)s2)CC1,-3.39%
10,O=C(Nc1ccc(NC(=O)c2cccc3ccccc23)cc1)c1ccco1,2.09%
11,COc1cc(OC)cc(C(=O)Nc2ccc(N3CCOCC3)c(Cl)c2)c1,0.214%
12,Cc1c(/C=N/n2cncn2)c(O)n2c(nc3ccccc32)c1C#N,0.736%
13,CS(=O)(=O)N(CC(=O)N1CCCCC1)Cc1ccccc1,-3.71%
14,Nc1c(C(=O)c2ccc(Cl)cc2)sc2nc3c(cc12)CCC3,-0.261%
15,CN1C(=O)C(=Cc2coc3ccccc3c2=O)C(=O)N(C)C1=O,-2.19%
16,CC1(C)CC(=O)C(/C=N/C2CCCCCC2)=C(O)C1,-0.996%
17,CCCOc1ccc(C(=O)c2nc3c(n2O)CCCC3)cc1,1.74%
18,Cc1cc(C)c(S(=O)(=O)n2nc(C)c(Sc3ccccc3)c2C)c(C)c1,-4.08%
19,Cc1ccc(C)c(OCC(=O)N2CCN(C(=O)COc3cc(C)ccc3C)CC2)c1,-5.92%
20,Cn1c2ccccc2c2cnn(CC(=O)N3CCN(c4ccccn4)CC3)c(=O)c21,4.53%
21,O=C(OCc1ccccc1)Sc1nc2ccccc2o1,1.67%
22,O=C(Nc1ccc(Cl)cc1C(=O)NCCN1CCOCC1)c1ccco1,16.8%
23,O=S(=O)(c1ccc(Oc2ccccc2)cc1)N1CCSC1,-1.86%
24,COc1ccc(C(=O)NC(c2c(C)nn(-c3ccccc3)c2O)(C(F)(F)F)C(F)(F)F)cc1,1.89%
